# Test results taken from the supplement of paper PMC8728848.
# The other results are listed elsewhere or left out.
# B1: F17dG (Escherichia coli), Q47199 (protein)
# chain: MTNFYKVFLAVFILVCCNISQAAVSFIGSTENDVGPSPGSYSRTHAMDNLPFVYNTGNNIGYQNANVWRISKGFCVGLDGKVDLPVVGSLDGQSIYGLTEEVGLLIWMGDTNYSRGTAMSGNSWENVFSGWCVGANTASTQGLSVRVTPVILKRNSSARYSVQKTSIGSIRMRPYNGSSAGSVQTTVNFSLNPFTLNDTVTSCRLLTPSAVNVSLAAISAGQLPSSGDEVVAGTTSLKLQCDAGVTVWATLTDATTPSNRSDILTLTGASTATGVGLRIYKNTDSTPLKFGPDSPVKGNENQWQLSTGTETSPSVRLYVKYVNTGEGINPGTVNGISTFTFSYQ
# Columns and labels:
# Assay in all cases: glycan array binding signal (z-score within array); higher = stronger binding
# Conditions in all cases: glycan notation: IUPAC condensed, linker removed
# Gal4S6S(b1-4)GlcNAc = biological target: Gal4S6S(b1-4)GlcNAc
# Procedure, shortened: (§1)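 From the Consortium for Functional Glycomics database, 3228 arrays were curated, keeping only those whose protein sequence was available. Binding is given as a within-array Z-score averaged across arrays sharing a protein sequence and across linkers. Negative Z-scores can be read as non-binding.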
# Gal6S(b1-4)Glc = biological target: Gal6S(b1-4)Glc
# Procedure, shortened: as §1
# Gal6S(b1-4)Glc6S = biological target: Gal6S(b1-4)Glc6S
# Procedure, shortened: as §1
# Gal6S(b1-4)GlcNAc = biological target: Gal6S(b1-4)GlcNAc
# Procedure, shortened: as §1
# GalNAc(a1-3)Gal = biological target: GalNAc(a1-3)Gal
# Procedure, shortened: as §1
# GalNAc(a1-3)GalNAc = biological target: GalNAc(a1-3)GalNAc
# Procedure, shortened: as §1
# [1] = biological target: GalNAc(b1-3)Gal(a1-4)Gal(b1-4)GlcNAc
# Procedure, shortened: as §1
# GalNAc(b1-3)GalNAc = biological target: GalNAc(b1-3)GalNAc
# Procedure, shortened: as §1
# GalNAc(b1-4)GlcNAc = biological target: GalNAc(b1-4)GlcNAc
# Procedure, shortened: as §1
# Glc(a1-4)Glc = biological target: Glc(a1-4)Glc
# Procedure, shortened: as §1
# Glc(a1-6)Glc(a1-6)Glc = biological target: Glc(a1-6)Glc(a1-6)Glc
# Procedure, shortened: as §1
# Glc(b1-4)Glc = biological target: Glc(b1-4)Glc
# Procedure, shortened: as §1
# Glc(b1-6)Glc = biological target: Glc(b1-6)Glc
# Procedure, shortened: as §1
# GlcA(b1-3)Gal = biological target: GlcA(b1-3)Gal
# Procedure, shortened: as §1
# GlcA(b1-6)Gal = biological target: GlcA(b1-6)Gal
# Procedure, shortened: as §1
# [2] = biological target: GlcNAc(a1-3)Gal(b1-4)GlcNAc
# Procedure, shortened: as §1
# [3] = biological target: GlcNAc(a1-6)Gal(b1-4)GlcNAc
# Procedure, shortened: as §1
# [4] = biological target: GlcNAc(b1-2)Gal(b1-3)GalNAc
# Procedure, shortened: as §1
# [5] = biological target: GlcNAc(b1-2)Man(a1-3)[GlcNAc(b1-2)Man(a1-6)]Man(b1-4)GlcNAc(b1-4)GlcNAc
# Procedure, shortened: as §1
# GlcNAc(b1-3)Gal = biological target: GlcNAc(b1-3)Gal
# Procedure, shortened: as §1
# [6] = biological target: GlcNAc(b1-3)Gal(b1-3)GalNAc
# Procedure, shortened: as §1
# GlcNAc(b1-3)Gal(b1-4)Glc = biological target: GlcNAc(b1-3)Gal(b1-4)Glc
# Procedure, shortened: as §1
# [7] = biological target: GlcNAc(b1-3)Gal(b1-4)GlcNAc
# Procedure, shortened: as §1
# [8] = biological target: GlcNAc(b1-3)Gal(b1-4)GlcNAc(b1-3)Gal(b1-4)GlcNAc
# Procedure, shortened: as §1
# GlcNAc(b1-3)GalNAc = biological target: GlcNAc(b1-3)GalNAc
# Procedure, shortened: as §1
# [9] = biological target: GlcNAc(b1-3)[GlcNAc(b1-6)]Gal(b1-4)GlcNAc
# Procedure, shortened: as §1
# [10] = biological target: GlcNAc(b1-3)[GlcNAc(b1-6)]GalNAc
# Procedure, shortened: as §1
# [11] = biological target: GlcNAc(b1-3)[GlcNAc(b1-6)]GlcNAc(b1-4)GlcNAc
# Procedure, shortened: as §1
# [12] = biological target: GlcNAc(b1-4)Gal(b1-4)GlcNAc
# Procedure, shortened: as §1
# [13] = biological target: GlcNAc(b1-4)GlcNAc(b1-4)GlcNAc
# Procedure, shortened: as §1
# [14] = biological target: GlcNAc(b1-4)GlcNAc(b1-4)GlcNAc(b1-4)GlcNAc(b1-4)GlcNAc
# Procedure, shortened: as §1
# [15] = biological target: GlcNAc(b1-4)GlcNAc(b1-4)GlcNAc(b1-4)GlcNAc(b1-4)GlcNAc(b1-4)GlcNAc
# Procedure, shortened: as §1
# [16] = biological target: GlcNAc(b1-4)[GlcNAc(b1-6)]GalNAc
# Procedure, shortened: as §1
# [17] = biological target: GlcNAc(b1-6)Gal(b1-4)GlcNAc
# Procedure, shortened: as §1
# GlcNAc(b1-6)GalNAc = biological target: GlcNAc(b1-6)GalNAc
# Procedure, shortened: as §1
# Kdn(a2-3)Gal(b1-3)GlcNAc = biological target: Kdn(a2-3)Gal(b1-3)GlcNAc
# Procedure, shortened: as §1
# Kdn(a2-3)Gal(b1-4)GlcNAc = biological target: Kdn(a2-3)Gal(b1-4)GlcNAc
# Procedure, shortened: as §1
# [18] = biological target: Man(a1-2)Man(a1-2)Man(a1-3)Man
# Procedure, shortened: as §1
# [19] = biological target: Man(a1-2)Man(a1-2)Man(a1-6)[Man(a1-3)]Man
# Procedure, shortened: as §1
# Man(a1-2)Man(a1-3)Man = biological target: Man(a1-2)Man(a1-3)Man
# Procedure, shortened: as §1
# [20] = biological target: Man(a1-2)Man(a1-3)[Man(a1-2)Man(a1-6)]Man
# Procedure, shortened: as §1
# [21] = biological target: Man(a1-2)Man(a1-3)[Man(a1-2)Man(a1-6)]Man(a1-6)[Man(a1-2)Man(a1-2)Man(a1-3)]Man(b1-4)GlcNAc(b1-4)GlcNAc
# Procedure, shortened: as §1
# [22] = biological target: Man(a1-2)Man(a1-3)[Man(a1-6)]Man(a1-6)[Man(a1-2)Man(a1-3)]Man(b1-4)GlcNAc(b1-4)GlcNAc
# Procedure, shortened: as §1
# [23] = biological target: Man(a1-2)Man(a1-6)[Man(a1-3)]Man(a1-6)[Man(a1-2)Man(a1-2)Man(a1-3)]Man(b1-4)GlcNAc(b1-4)GlcNAc
# Procedure, shortened: as §1
# Man(a1-3)[Man(a1-6)]Man = biological target: Man(a1-3)[Man(a1-6)]Man
# Procedure, shortened: as §1
binder,measurement,setting,value
B1,glycan array binding signal (z-score),Gal4S6S(b1-4)GlcNAc,-0.071
same,glycan array binding signal (z-score),Gal6S(b1-4)Glc,-0.327
same,glycan array binding signal (z-score),Gal6S(b1-4)Glc6S,-0.217
same,glycan array binding signal (z-score),Gal6S(b1-4)GlcNAc,-0.255
same,glycan array binding signal (z-score),GalNAc(a1-3)Gal,-0.339
same,glycan array binding signal (z-score),GalNAc(a1-3)GalNAc,-0.237
same,glycan array binding signal (z-score),[1],-0.353
same,glycan array binding signal (z-score),GalNAc(b1-3)GalNAc,3.1
same,glycan array binding signal (z-score),GalNAc(b1-4)GlcNAc,-0.336
same,glycan array binding signal (z-score),Glc(a1-4)Glc,-0.331
same,glycan array binding signal (z-score),Glc(a1-6)Glc(a1-6)Glc,-0.359
same,glycan array binding signal (z-score),Glc(b1-4)Glc,-0.357
same,glycan array binding signal (z-score),Glc(b1-6)Glc,-0.098
same,glycan array binding signal (z-score),GlcA(b1-3)Gal,-0.38
same,glycan array binding signal (z-score),GlcA(b1-6)Gal,-0.373
same,glycan array binding signal (z-score),[2],-0.301
same,glycan array binding signal (z-score),[3],-0.344
same,glycan array binding signal (z-score),[4],-0.373
same,glycan array binding signal (z-score),[5],-0.377
same,glycan array binding signal (z-score),GlcNAc(b1-3)Gal,4.56
same,glycan array binding signal (z-score),[6],0.692
same,glycan array binding signal (z-score),GlcNAc(b1-3)Gal(b1-4)Glc,5.88
same,glycan array binding signal (z-score),[7],2.48
same,glycan array binding signal (z-score),[8],1.12
same,glycan array binding signal (z-score),GlcNAc(b1-3)GalNAc,2.46
same,glycan array binding signal (z-score),[9],5.46
same,glycan array binding signal (z-score),[10],6.17
same,glycan array binding signal (z-score),[11],1.74
same,glycan array binding signal (z-score),[12],0.345
same,glycan array binding signal (z-score),[13],-0.059
same,glycan array binding signal (z-score),[14],-0.294
same,glycan array binding signal (z-score),[15],-0.291
same,glycan array binding signal (z-score),[16],-0.009
same,glycan array binding signal (z-score),[17],1.05
same,glycan array binding signal (z-score),GlcNAc(b1-6)GalNAc,0.427
same,glycan array binding signal (z-score),Kdn(a2-3)Gal(b1-3)GlcNAc,-0.39
same,glycan array binding signal (z-score),Kdn(a2-3)Gal(b1-4)GlcNAc,-0.349
same,glycan array binding signal (z-score),[18],0.157
same,glycan array binding signal (z-score),[19],-0.359
same,glycan array binding signal (z-score),Man(a1-2)Man(a1-3)Man,-0.294
same,glycan array binding signal (z-score),[20],-0.355
same,glycan array binding signal (z-score),[21],-0.283
same,glycan array binding signal (z-score),[22],-0.365
same,glycan array binding signal (z-score),[23],-0.385
same,glycan array binding signal (z-score),Man(a1-3)[Man(a1-6)]Man,-0.093
